Source: the RNAGym collection of RNA variant scans (doi:10.1073/pnas.2313332121)
Variants at the background level are over-represented here.

B1: TPR 5TU (parent)
chain: GGAUCUUCUCGAUCUAACAAAAAAGACAAAUCUGCCACAAAGCUUGAGAGCAUCUUCGGAUGCAGAGGCGGCAGCCUUCGGUGGCGCGAUAGCGCCAACGUUCUCAACUAUGACACGCAAAACGCGUGCUCCGUUGAAUGGAGUUUAUCAUG

Variants of: B1
Assay: polymerase ribozyme fitness, log enrichment relative to wild type (log ratio); higher = more active; in vitro selection for triplet polymerase activity
Method in brief: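 Mutant libraries of both subunits of a heterodimeric triplet polymerase ribozyme were PCR-built, transcribed, and selected once in triplicate, with frozen incubation at −7 °C and capture of gel-excised extended constructs on streptavidin beads before RT-PCR. Illumina sequencing of input and output libraries was filtered to genotypes with ≥10 input reads and ≥1 read per output. Fitness is the logarithm of genotype enrichment over wild-type enrichment, using inverse-variance-weighted replicate averages. The logarithm is base 2.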

Row | Variant | polymerase ribozyme fitness (log ratio)
1 | GGAUCUUCUCGAUCAAACAAAAUUGACAAAUCUGCCACAAAGCUUGAGAGCAUAUUCGGAUGCAGAGGCGGCAGCCUUCUGUGGCGGGAUAGCGCCAACGUUCUUGACUAUGACACGCAAAACGCGUGCUCCGUUGAAUGGAGUUUAUCAUG [U15A A23U A24U C54A G80U C87G C105U A106G] | ≤ -4.2
2 | GGAUCUUCUCGAUCAAACAAAAACGACAAAUCUGCCACAAAGCUUGAGAGCAUCUUCGGAUGCAGAGGCGGCAGCUUUCGGUGGCACGAUAGCGCCAACGUUCUCAACUAUGACACGCAAAACGCGUGCUCCGUUGAAUGGAGUUUAUCAUG [U15A A24C C76U G86A] | ≤ -4.2
3 | GGAUCUUCUCGAUUUAACAAAAAAGACAAAUCUGCCACAAAGCUGGAGAGCAUCUUCGGAUGCAGAGGCGGCAGCCUUGGGUUGGGCGAUAGCGCCAACGUCCUCAACUAUGACACGCAAAACGCGUGCUCCGUUGAAUGGAGUUUAUCAUG [C14U U45G C79G G83U C85G U102C] | ≤ -4.2
4 | GGAUCUUCUCGAUCAAACAAAAAAGACAGAUCUGCCACAAAGCUUGAGAGCAUCUUCGGAUGCAGAGGCGGCAGCCUACGGUGGCGCAAUAGCGCCAACGUUCUCAACUAUGACACGCAAAACGCUUGCUCCGUGGAAUGGAGUUUAGCAUG [U15A A29G U78A G88A G126U U135G U148G] | ≤ -4.2
5 | GGAUCUUCUCGAUUUAACAAAAAAGACAAAUCUGCCACAAAGCUAGAGAGCAUCGUCGGAUGCAGAGGCGGCAGUCUUCGGUGGCGCGAUAGCGCCAACGGACUCAACUAUGACACGCAAAACGCGUGCUCCGUUGAAUGGAGUUUAUCAUG [C14U U45A U55G C75U U101G U102A] | ≤ -4.2
6 | GGAUCUUCUCGAUCAAACAAAAAAGACACAUCUGACACAAAGCUUGAGAGCAUCUUCGAAUGCAGAGGCGGCAGCUUUCGGUGGCGCGAUAGCGCCAACGUUCUCAACUAUGACACGCAAAACGCGUGCUCCGUUGAAUGGACUUUAUCAUG [U15A A29C C35A G59A C76U G143C] | ≤ -4.2
7 | GGAUCUUCUCGAUCAAACAAAAAAGACUAAUCUGCCACAAAGGUUGAGAGCAUCUUCGGAUGCAGAGGCGGCAGCCUUCGGUAGCGCGAUAGCGCCAACGUUCUCAACUAUGACACGCAAAACGCGUGCUCUGAUGAAUGGAGUCUAUCAUG [U15A A28U C43G G83A C132U U134A U145C] | ≤ -4.2
8 | GGAUCUUCUCGAUCAAACAAGAAAGACAAAUCUGCGACAAAGCUUGAGAGCAUCUUCGGCUGCAGAGGCGGCAGCCUUCGGUGGCGCGAUAGCGCAAACGUUCUCAACUAUGACACGCAAAACGCGUGCUCCGUUGAAUGGAGUUUCUCAUG [U15A A21G C36G A60C C96A A147C] | ≤ -4.2
9 | GGAUCUUCUCGAUUUAACAAAAAAGACAAAUCAGCCACAAAGCUUGAGAGCAUCUUCGGAUGCAGAGGAGGCAGCCUUCGGGGGCGCGAUAGCGCCAACGUUCUCAACUAUGACACGCAAAACGCGUGCUCCGUCGAAUGGAGUUUAUCAUG [C14U U33A C69A U82G U135C] | ≤ -4.2
10 | GGAUCUUCUCGAUCAAACACAAAAGACAAAUCUGCCACAAACCUUGAGAGCAUCUUCGGAUGUAGAGGCGGCAGCCUUCGCUGGCACGAUAGCGCCAACGUUUUCAACAAUGACACGCAAAACGCGUGCUCCGUUGGAUGGAGUUUAUCAUG [U15A A20C G42C C63U G81C G86A C103U U109A A137G] | ≤ -4.2
11 | GGAUCUUCUCGAUUUAACAAAAAAGACAAAUCUGCCACAAAGCUUGAGAGCAUCUACGGAUGCAGAGGCGGCAGCCUUCGGUGGCGCGAUAGCGCCAACGUUCUCAACUAUGACACGCAAAACGCGUGCUCCGUUGAAUGGAGUUUAUCAUG [C14U U56A] | -1.8
12 | GGAUCUUCUCGAUCAAACAAAAAAGACUAAUCUGCCACAAAGCUUGAGAGCGUCAUCGGAUGCAGAGGCGGCAGCCUUCGGUGGCGCGAUAGCGUCAACGUUCUCAACUAUGACACGCAAAACGCGUGCUCCGUUGAAUGGAGUUUAUCAUG [U15A A28U A52G U55A C95U] | ≤ -4.2
13 | GGAUCUUCUCGAUCAAUCAAAAAAGACAAAUCUGCCACAAACCUUGAGAGCAUCUUCGGCUGCAGAGGCGGCAGGCUUCGGUGGCGCGAUAGAGCCAACGUUCUCAACGAUGACACGUAAAACGCGUGCUCCGUCGAAAGGAGUUUAUCAUG [U15A A17U G42C A60C C75G C93A U109G C118U U135C U139A] | ≤ -4.2
14 | GGAUCUUCUCGAUCAACCAAAAAAGACAAAUGUGCCACAAAGCUUGAGAGCAUCUUCGGGUGCAGAGGCGGCAGCCUUCGGUGGCGCGAUAGCGCCAAUGUUCUCAACUAUGACAUGCAAAACGCGUGCUCCGUUGAAUGGAGUUUAUCAUG [U15A A17C C32G A60G C99U C116U] | ≤ -4.2
15 | GGAUCUUCUCGAUCAAACCAAAAAGAGAAAUCUGCAACAAAGCUUGAGAGCAUCUUCGGAUCCAGAGGCGGCAGCCUCCGGUGGCGGGAUAGCGCCAACGUUCCCAACUAUGACACGCAAAACGCGUGCUCCGUUGAAUGGAGUUUAUCAUG [U15A A19C C27G C36A G62C U78C C87G U104C] | ≤ -4.2
16 | GGAUCUUCUCGAUUUAACAAAAAAGACAAAUCUGCCACAAAGCUUGAGAGCAACUUCGGAUGCAGAGGCGGCAGCAUUCGGUGGCGCGAUAGCGCCAACGUUGUCAAAUAUGACACGUAAAACGCGUGCUCCGUUGAAUGGAGUUUAUCAUG [C14U U53A C76A C103G C108A C118U] | ≤ -4.2
17 | GGAUCUUCUCGAUCAAACAAGAAAGACAAAUCUGCCACAAAGCUUGAGGGCAUCUUCGGAUGCAGAGGCGGCAGCCUUCGGUGGCGCGAUAGCGCGAACGUUCUCAACUAUGACACGCAAAACGCGUGCUCCGUUGAAUGGAGUUUAUCAUG [U15A A21G A49G C96G] | -1.26
18 | GGAUCUUCUCGAUCAAACAAAAAAGACAAUUCUGCCACAAAGCUUGAGAGCAUCUUCGGAUGCAGACGCGGUAGCCUUCGGUGGCGCGAUACCGCCAACGUUCUCAACUAUGACACGCAAAACGCGUGCUCCGUUGAAUGGAGUUUAUCAUG [U15A A30U G67C C72U G92C] | ≤ -4.2
19 | GGAUCUUCUCGAUCAAACAAAAAGGACAAAUCUGCAACAAAGCUUGAGAACAUCUUCGGAUGCAGAGGCGGCAGCCUACGGUGUCGCGAUAGCGCCAACGUUCUCGACUAUGACACGCAAAACGCGUGCUCCGUUGAAUGGAGUUUAUCAUG [U15A A24G C36A G50A U78A G84U A106G] | ≤ -4.2
